Experimental data taken from PubChem BioAssay AID1745845 (National Center for Advancing Translational Sciences (NCATS), 2022).
Among all 360,000 compounds or so, about 2,600 (0.72%) were called active. Inconclusive means that the source gave no clear call. Such entries were picked first, then a sample of the others. Calls follow the shape of the dose curve; as a rule, active = well fitted inhibition curve with a large enough effect; inconclusive = small, poorly fitted or top-dose-only effect; inactive = no such curve, though single readings can be large or run the other way. Potencies of inconclusive entries are doubtful fits and often do not repeat.

assay: Primary qHTS for Inhibitors of ATXN expression; details: HEK-293 ATXN2-luciferase reporter, luminescence, 24 h; activity change, negative = inhibition: at 57 µM (top of the series); also: nearly all actives have a fitted effect of over 55% in size
Procedure, shortened: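 qHTS (up to 57 uM final) was run with 24 h compound exposure of reporter cells at 37 °C. Each well was multiplexed: SteadyGlo luminescence measured ATXN2-luciferase expression after a fluorogenic Gly-Phe-AFC viability readout (25 uM final).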
% is scaled to controls: 0 for no effect and ±100 for the full control effect; potency is read from the fitted curve at half-maximal effect; tags tell the direction and shape of the fitted curve.

Structure (SMILES)	activity change, negative = inhibition	Potency
COc1ccccc1C(=O)COC(=O)c1cc(S(=O)(=O)N2CCCCC2)ccc1N1CCOCC1	inactive: -11.8%	–
CCCCC[C@@H](C)N1C[C@H](COCc2ccccc2)Oc2cc(N3CC[C@@H](N(C)C)C3)ccc2S1(=O)=O	–	inconclusive: 22.4 µM [inhibitor, single point]
O=C(CSc1nc2ccc(Nc3nc(N4CCOCC4)nc(N4CCOCC4)n3)cc2s1)Nc1ccccc1F	–	inconclusive: 35.5 µM [inhibitor, single point]
O=C1CN(C(=O)COc2ccc(Cl)cc2)C(c2ccccc2)c2cc(Br)ccc2N1 (centres undefined)	–	inconclusive: 28.2 µM [inhibitor, single point]
CCC1CCCCN1CC(=O)Nc1cc(C)nn1-c1nc(C)cc(C)n1 (centres undefined)	–	inconclusive: 25.1 µM [inhibitor, single point]
CC[C@H]1OC(=O)[C@H](C)C(=O)[C@H](C)[C@@H](O[C@H]2O[C@H](C)C[C@H](N(C)C)[C@@H]2O)[C@](C)(OC)C[C@@H](C)C(=O)[C@H](C)[C@H]2N(CCCCn3cnc(-c4cccnc4)c3)C(=O)O[C@]12C	–	inconclusive: 27.3 µM [inhibitor, single point]
CC1(C)CC(=O)C2=C(C1)N1C(=C(C#N)C2c2ccccc2Cl)N=C(N)c2ccccc21 (centres undefined)	–	inconclusive: 39.8 µM [inhibitor, single point]
COc1ccc(N2C(=O)c3ccc(C(=O)Nc4ccc(NC(C)=O)cc4)cc3C2=O)cc1	inactive: -8.37%	–
O=C(Nc1nc(-c2ccccn2)cs1)C1COc2ccccc2O1 (centres undefined)	–	inconclusive: 3.55 µM [inhibitor, full curve]
Cc1cc(C)c(NC(=O)COC(=O)c2cccc3c2C(=O)c2ccccc2C3=O)c(C)c1	inactive: -25.7%	–
CCC(=O)N1CCN(c2nc(CC)nc3sc4c(c23)CCCC4)CC1	inactive: 4.06%	–
O=C1C=CC(=O)c2c(O)c(N3CCN(CCOCCO)CC3)c(Br)c(O)c21	–	active: 7.94 µM
Cc1cc(C(=O)CSc2nnc(N)s2)c(C)n1Cc1cccs1	–	inconclusive: 17.8 µM [inhibitor, single point]
CCN(c1cccc(C)c1)S(=O)(=O)c1ccc2c(c1)CCN2C(C)=O	–	inconclusive: 31.6 µM [inhibitor, partial curve, poor fit]
COc1cccc(CNC(=O)c2sc3nc(C)cc(C)c3c2-n2cccc2)c1OC	inactive: 3.69%	–
CC(=O)Oc1ccc(N(C(C)=O)S(=O)(=O)c2ccc(Cl)cc2)c2ccccc12	–	inconclusive: 39.8 µM [inhibitor, single point]
CCCCCCN1C[C@H](O)[C@@H](n2cc(COC(=O)c3ccccc3)nn2)C[C@@H]1c1ccc(C)cc1	–	inconclusive: 39.8 µM [inhibitor, partial curve, poor fit]
C=CCn1c(SCC(=O)c2[nH]c(C)c(C(=O)OCC)c2C)nc2scc(-c3ccc(OC)c(OC)c3)c2c1=O	–	active: 28.2 µM
CCN1C=C(C(=O)c2ccccc2)C(=O)CC1	inactive: 3.46%	–
CCOC(CCNC(=O)c1cn(CC(C)C)c(=O)c2c1c1ccccc1n2C)OCC	–	inconclusive: 2.24 µM [inhibitor, partial curve, poor fit]
CC(Oc1ccc2c3c(c(=O)oc2c1)CCC3)C(=O)NCC1CCC(C(=O)O)CC1 (centres undefined)	inactive: 11.4%	–
CC(C)(CNC(=O)c1ccc([N+](=O)[O-])c(Cl)c1)CNC(=O)c1ccc([N+](=O)[O-])c(Cl)c1	–	inconclusive: 39.8 µM [inhibitor, single point]

Structure (SMILES)	activity change, negative = inhibition	Potency
CCCCn1nnnc1C(CCSC)N1CCN(C/C=C/c2ccccc2)CC1 (centres undefined)	inactive: -20.2%	–
CCOC(=O)[C@]12CCCC=C1N(Cc1cccc3ccccc13)C(=O)[C@H](CC(=O)NCc1ccccc1)C2	–	inconclusive: 39.8 µM [inhibitor, single point]
CC(C)(C)CC(=O)NC(=S)Nc1ccccc1C(F)(F)F	inactive: 18.7%	–
Cc1nn2c(=O)cc(COC(=O)c3ccco3)nc2s1	inactive: 8.91%	–
CCCCCc1c(-c2cccc(F)c2)ncn1CCc1ccccc1OC	–	inconclusive: 39.8 µM [inhibitor, single point]
CC1(C)CC(NC(=O)c2cc([N+](=O)[O-])cc([N+](=O)[O-])c2)CC(C)(C)N1	inconclusive: -48.2% [inhibitor]	–
CCOc1ccccc1NC(=O)c1ccccc1-c1ccccc1	inactive: -15.4%	–
COc1ccc(CC(=O)Nc2sc3c(c2C(=O)Nc2cccc(Cl)c2)CCCCC3)cc1	–	inconclusive: 35.5 µM [inhibitor, single point]
O=C(CCl)NN1C(=O)NC(c2ccccc2)(c2ccccc2)C1=O	–	inconclusive: 26.7 µM [inhibitor, partial curve, poor fit]
O=C(Nc1ccccn1)c1ccc2c(c1)OCCO2	–	inconclusive: 25.1 µM [inhibitor, partial curve, poor fit]
Cc1ccc2c(c1)c1c3n2CCN(C(=O)Cn2c(-c4ccccc4)noc2=O)C3CCC1 (centres undefined)	inactive: -7.16%	–
O=C1N[C@@H](Cc2c[nH]c3ccccc23)COC(=O)[C@@H](Cc2ccc(F)cc2)C/C=C\C[C@H]1CC(=O)N(CCO)Cc1ccccc1	–	inconclusive: 25.1 µM [inhibitor, single point]
CC(=O)NC(c1ccco1)c1cc(Cl)c2cccnc2c1O (centres undefined)	–	active: 8.91 µM
CCn1cnc2c1c(=O)n(Cc1cccc(Br)c1)c(=O)n2Cc1ccccc1	inactive: -5.19%	–
CCCCC[C@H]1CN(C2CCCCC2)C(=O)[C@@H]1CC(=O)NCc1ccccc1	–	inconclusive: 25.1 µM [inhibitor, single point]
CC(=O)Nc1cccc(-c2cc(NC(C)=O)c3ncc(-c4cccc(C(F)(F)F)c4)n3c2)c1	–	inconclusive: 39.8 µM [inhibitor, partial curve, poor fit]
O=C(Cc1ccc([N+](=O)[O-])cc1)NCc1cccnc1	inactive: -5.35%	–
CC(=O)c1ccc(NC(=O)Nc2ccc(NS(=O)(=O)c3ccc(C)cc3)cc2)cc1	inactive: 0.122%	–
CC(C)(C)c1nnc(N/N=C/c2cc(Br)ccc2O)n(N)c1=O	–	inconclusive: 1.78 µM [inhibitor, full curve, poor fit]
C=CC(=O)N1C/C(=C/c2ccc(F)cc2)C(=O)/C(=C\c2ccc(F)cc2)C1	–	active: 5.62 µM
OC(CN1CCN(c2ccccc2)CC1)c1ccc2c(c1)CCN2 (centres undefined)	inactive: 4.44%	–
COc1ccc(CN(C)C[C@@H]2OCCCC[C@H](C)Oc3ccc(NC(=O)Nc4ccc(F)cc4)cc3C(=O)N([C@H](C)CO)C[C@H]2C)cc1	–	inconclusive: 28.2 µM [inhibitor, single point]

Structure (SMILES)	activity change, negative = inhibition	Potency
COc1ccc2nc(C)cc(SCC(=O)N/N=C/c3cccc4ccccc34)c2c1	–	inconclusive: 25.1 µM [inhibitor, single point]
CCN1CCN(S(=O)(=O)c2ccc(OC)c(Br)c2)CC1	inactive: -8.29%	–
CCCN(CCC)CC(O)Cn1cc(/C=C/C(=O)c2ccc(C)cc2)c2ccccc21 (centres undefined)	–	inconclusive: 28.2 µM [inhibitor, single point]
CC(=O)OC1CCC2C3CCC4=C(CC(F)C(=O)C4)C3CCC12C (centres undefined)	–	inconclusive: 39.8 µM [inhibitor, single point]
Cc1ccccc1Cn1c(=N)n(CC(O)c2ccco2)c2ccccc21 (centres undefined)	–	inconclusive: 39.8 µM [inhibitor, partial curve, poor fit]
Cc1cccc(NC(=O)c2cc(=O)c3ccccc3o2)c1	inactive: 25.9%	–
Brc1ccc(-c2nc3ccccn3c2Nc2ccc3c(c2)OCCO3)o1	–	inconclusive: 39.8 µM [inhibitor, single point]
COc1cccc(N2CCN(c3ncnc4c3nc3n4CCCCC3)CC2)c1	–	inconclusive: 20 µM [inhibitor, partial curve, poor fit]
Cc1cc(NC(=S)NC(=O)/C=C/c2ccc(S(=O)(=O)N3CCOCC3)cc2)ccc1Br	–	inconclusive: 22.4 µM [inhibitor, partial curve, poor fit]
CNCCCN1c2ccccc2CCc2ccccc21	–	inconclusive: 39.8 µM [inhibitor, single point]
O=C(CNc1cc(S(=O)(=O)N2CCCC2)ccc1OCC(F)(F)F)Nc1ccc(SC(F)F)cc1	–	inconclusive: 37.7 µM [inhibitor, single point]
COc1cccc(-c2nnn(CC(=O)Nc3cc(OC)c(NC(=O)c4ccco4)cc3OC)n2)c1	–	inconclusive: 35.5 µM [inhibitor, partial curve, poor fit]
Cn1cc(CNCc2cnc3ccccn23)c(-c2ccc(Oc3ccccc3)cc2)n1	–	inconclusive: 11.2 µM [inhibitor, partial curve, poor fit]
Cc1cc(C(=O)N2CCCC(N3CCN(c4cccc(C(F)(F)F)c4)CC3)C2)c(C)o1 (centres undefined)	inactive: -25.4%	–
O=S(=O)(c1ccc(Cl)cc1)c1snnc1-c1ccccc1	–	active: 20 µM
N#CC1=C(c2ccccc2)/C(=C/c2ccccc2)OC1=O	–	inconclusive: 39.8 µM [inhibitor, single point]
O=[N+]([O-])c1cccc(-c2csc(N/N=C/c3cccc(O)c3)n2)c1	inconclusive: -40.8% [inhibitor]	–
N#Cc1nc(Cc2cccc3ccccc23)oc1NCCN1CCCCC1	–	inconclusive: 17.8 µM [inhibitor, partial curve, poor fit]
O=C(O)c1cc(-n2cccc2)ccc1N1CCOCC1	–	inconclusive: 15 µM [inhibitor, partial curve, poor fit]
CCNC(=O)Nc1ccc(-c2nc3c(c(N4CCOC[C@H]4C)n2)CCN(C2COC2)C3)cc1	–	inconclusive: 6.85 µM [inhibitor, partial curve]
